Data: PubChem BioAssay AID1745853 (National Center for Advancing Translational Sciences (NCATS), 2022)
Some of the results follow. Further columns of the screen follow, without active or inactive calls.

Experiments:
Assay in all cases: Primary Screen for Target Class Profiling of Small Molecule Inhibitors of Methyltransferases
[1] = biological target: Glycine N-methyltransferase (Homo sapiens) (UniProt Q14749); settings: purified enzyme, MTase-Glo SAH luminescence; measured here: GNMT inhibition; at 40 µM; stronger effect = lower value
Description: (§1) PI: Matthew D. Hall Ph.D. and Quinlin M. Hanson Ph.D.
(§2) National Center for Advancing Translational Sciences (NCATS)
(§3) National Institute of Health (NIH), Rockville, MD
(§4) Target class profiling (TCP) is a chemical biology approach amenable to investigating understudied biological targets. TCP is achieved by developing a generalizable assay platform and applying it to screen a curated set of compound libraries against representative members of a target class. Small molecule methyltransferases (SMMTase) are a subclass of methyltransferase that act on metabolites to modulate signaling pathways, metabolize xenobiotics, or balance the available methyl pool. We screened four curated libraries totaling 27,574 unique compounds against the SMMTases nicotinamide N-methyltransferase (NNMT), phenylethanolamine N-methyltransferase (PNMT), histamine N-methyltransferase (HNMT), glycine N-methyltransferase (GNMT), catechol O-methyltransferase (COMT), and guanidinoacetate N-methyltransferase (GAMT). The data generated by this TCP can be leveraged for informed tool molecule development. For example, in the associated publication we identified a chemotype of HNMT-selective inhibitors. Additionally, we identified a putative SMMTase-selective inhibitor with potential as a tool molecule for studying broader methyltransferase biology.
(§5) High-through put screening assays were developed at the National Center for Advancing Translational Science (NCATS) for the enzymes NNMT, PNMT, HNMT, GNMT, COMT, and GAMT. Enzymatic activity was measured as a function of SAM cofactor conversion using the MTase Glo kit (Promega) for all enzymes. All assays were performed in 1536-well format with substrates and SAM concentrations at KM values. Enzyme concentration and assay timing were optimized for 10-20% SAM conversion. Initial screening of 27,574 compounds was done as single-point assays using the highest compound concentration (40 uM). […] These compounds were replated in 11-point dose response and assayed against NNMT, PNMT, HNMT, GNMT, COMT, GAMT, and a counter-assay. The IC50 and efficacy (maximal response) values were determined for each dose-response curve. These values are also accounted for in the area under the curve (AUC) values.
(§6) PROTOCOL TABLE (as described by Inglese J, Shamu CE and Guy RK. 2007)
(§7) SEQUENCE No. (e.g., 1, 2, 3, etc.); […] (e.g., Cells, Incubation, Reagent, etc.); VALUE; DESCRIPTION.
(§8) 1; Reagent; 2 uL; SMMTase Enzyme (2x) in reaction buffer, columns 1- 48.
(§9) 2; Reagent; 1 uL; SAM (4x) in reaction buffer, columns 1-48.
(§10) 3; Controls; 23 nL; DMSO in column 4; sinefungin in DMSO (0 uM - 40 uM) in 7-point 1:2 dilution series (n = 2) in column 2.
(§11) 4; Compounds; 23 nL; Columns 5-48.
(§12) 5; Reagent; 1 uL; Substrate (4x) in reaction buffer, columns 2-48.
(§13) 6; Time; 20-30 min; Incubation.
(§14) 7; Reagent; 1 uL; MTase-Glo reagent (5X), columns 1-48.
(§15) 8; Time; 30 min; Incubation.
(§16) 9; Reagent; 5 uL; MTase-Glo Detection reagent, columns 1-48.
(§17) 10; Time; 30 min; Incubation, luminescence evolution.
(§18) 11; Detection; Luminescence; ViewLux uHTS Microplate Imager (PerkinElmer).
(§19) NOTES (numbers refer to Sequence numbers above)
(§20) 1, 2, 5. White Medium Binding Greiner 1536-well plates (Cat #789175-F, Greiner Bio-One, Monroe, NC); Reaction buffer: 50 mM Tris, pH 8.0, 3 mM MgCl2, 1 mM EDTA, 50 mM NaCl, 1 mM DTT, and 0.1 mg/mL BSA. Evaporation was prevented by covering assay plates with metal lids containing holes to allow gas diffusion.
(§21) 1. Six SMMTase were profiled: HNMT, GNMT, PNMT, COMT, NNMT, GAMT
(§22) 5. The corresponding substrate was used for each enzyme: HNMT - 5.3 uM Histamine; GNMT - >500 uM Glycine; PNMT - 16.2 uM Norephinephrine; COMT - 13.7 uM Norephinephrine; NNMT - 3.8 uM Nicotinamide; GAMT - 2.5 uM Guanidinoacetate.6, 8, 10. Room temperature
(§23) 6. Final reaction conditions: 10 nM COMT, 5 uM SAM, 15 uM norepinephrine, 50 mM Tris, pH 8.0, 3 mM MgCl2, 1 mM EDTA, 50 mM NaCl, 1 mM DTT, and 0.1 mg/mL BSA; refer to tables 2 and S1 for specific timing.
8. […]

[2] = biological target: Guanidinoacetate N-methyltransferase (Homo sapiens) (UniProt Q14353); settings: purified enzyme, MTase-Glo SAH luminescence; measured here: GAMT inhibition; at 40 µM; stronger effect = lower value
Description: as §1, §2, §3, §4, §5, §6, §7, §8, §9, §10, §11, §12, §13, §14, §15, §16, §17, §18, §19, §20, §21, §22, §23
8. […]

[3] = biological target: Histamine N-methyltransferase (Homo sapiens) (UniProt P50135); settings: purified enzyme, MTase-Glo SAH luminescence; measured here: HNMT inhibition; at 40 µM; stronger effect = lower value
Description: as §1, §2, §3, §4, §5, §6, §7, §8, §9, §10, §11, §12, §13, §14, §15, §16, §17, §18, §19, §20, §21, §22, §23
8. […]

[4] = biological target: Nicotinamide N-methyltransferase (Homo sapiens) (UniProt P40261); settings: purified enzyme, MTase-Glo SAH luminescence; measured here: NNMT inhibition; at 40 µM; stronger effect = lower value
Description: as §1, §2, §3, §4, §5, §6, §7, §8, §9, §10, §11, §12, §13, §14, §15, §16, §17, §18, §19, §20, §21, §22, §23
8. […]

[5] = biological target: Phenylethanolamine N-methyltransferase (Homo sapiens) (UniProt P11086); settings: purified enzyme, MTase-Glo SAH luminescence; measured here: PNMT inhibition; at 40 µM; stronger effect = lower value
Description: as §1, §2, §3, §4, §5, §6, §7, §8, §9, §10, §11, §12, §13, §14, §15, §16, §17, §18, §19, §20, §21, §22, §23
8. […]
% is scaled to controls: 0 for no effect and ±100 for the full control effect.

SMILES	activity change, negative = inhibition [1] [%]	activity change, negative = inhibition [2] [%]	activity change, negative = inhibition [3] [%]	activity change, negative = inhibition [4] [%]	activity change, negative = inhibition [5] [%]
CC(C)c1ccc(NC(=O)CSc2nnc3[nH]c(=O)c(C(C)(C)C)nn23)cc1	5.88	0	9.11	-8.34	0.555
C[C@@]1(C2CCCC2)Cc2cc(OCC(=O)O)c(Cl)c(Cl)c2C1=O	-5.28	9.19	1.89	-50.6	3.94
COc1cccc(CCC(=O)NC2CCN(c3cc(C(F)(F)F)nc(C)n3)CC2)c1	-3.4	-0.84	1.31	-0.159	11.6
CCOc1ccccc1CN1C(=O)c2nc3ccccc3n2CC1(C)C(=O)NCc1ccccc1 (stereo not given)	-4.14	0	4.18	1.37	0.012
CCCn1c(=O)c2ccc(C(=O)NC3CCCCC3)cc2n2c(=O)n(Cc3ccccc3Cl)nc12	-3.64	0.288	-9.73	-5.59	-1.39
COc1ccccc1CNC(=O)C1(C)Cn2c(cc3ccccc32)C(=O)N1Cc1ccc(OC)c(OC)c1 (stereo not given)	1.03	0	2.1	-46.2	1.69
NS(=O)(=O)c1ccc(N2CCN(CC[C@@H]3OCCc4ccccc43)CC2)cc1	2.35	-0.831	1.7	-15.2	-5.61
Oc1cc2c(cc1O)C(c1ccccc1)CNCC2 (stereo not given)	-50.9	12.3	-8.95	-3.84	7.46
Cc1ccc(Cn2c(=O)c3ccccc3n3c(=O)n(CC(=O)Nc4ccc(C)cc4C)nc23)cc1	6.18	0	7.91	6.12	4.65
CCc1cccc(NC(=O)CN(C)S(=O)(=O)c2ccc3[nH]c4c(c3c2)CCCC4)c1	1.31	0.568	2.1	0.838	1.83
COc1ccccc1CNC(=O)C1(C)Cn2c(cc3ccccc32)C(=O)N1CCN1CCOCC1 (stereo not given)	3.04	2.9	4.53	2.9	2.07
Cn1ccc(NC(=O)[C@@H]2C[C@@H](c3ccc(F)cc3)N(CCOc3ccccc3)C2)n1	-4.73	-0.634	1.22	-8.58	-14
CC(C)(C)c1coc([C@@H]2COCCN2Cc2ccc(C(=O)O)cc2)n1	-6.25	-11.4	-2.08	-8.63	-5.07
CCCn1cc2c(nc(NC(=O)Nc3ccc(OC)cc3)n3nc(-c4ccco4)nc23)n1	3.33	15.5	10.2	-7.95	3.66
